# From PubChem BioAssay AID686978 (National Center for Advancing Translational Sciences (NCATS), 2013)
# “And” between values parts separate entries of the source, which are not always exact repeats. Equal entries are not always repeated. Screen size: about 420,000 compounds; about 64,000 (15%) were called active. The inconclusive results got no clear call from the source; some entries with a clear call stand among them for comparison. Calls follow the shape of the dose curve; as a rule, active = well fitted inhibition curve with a large enough effect; inconclusive = small, poorly fitted or top-dose-only effect; inactive = flat fitted curve, though single readings scatter. A potency beside an inconclusive call is a rough fit, not a confirmed value.
# Test: qHTS for Inhibitors of human tyrosyl-DNA phosphodiesterase 1 (TDP1): qHTS in cells in absence of CPT; also: nearly all actives have a fitted effect of over 55% in size
# Details: DT40 Tdp1-/- hTDP1 cells, no CPT, ATP luminescence, 48 h; activity change, negative = growth inhibition: at 46.2 µM (top of the series) unless noted
# Procedure, shortened: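 Camptothecin absent (DMSO only). Human TDP1-complemented DT40 knockout cells, 400 cells/well, 37 °C for minimum 48 hr; ATP measured via CellTiter-Glo, 30 min dark incubation, luminescence.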
# % is scaled to controls: 0 for no effect and ±100 for the full control effect; potency is read from the fitted curve at half-maximal effect; tags tell the direction and shape of the fitted curve.
SMILES,"activity change, negative = growth inhibition",Potency
Cc1ccc(NC(=O)Cn2c(=O)n(CCC(=O)NCc3ccc4c(c3)OCO4)c(=O)c3sccc32)c(C)c1,inactive: 5.14%,
CCCS(=O)(=O)NC(=O)C1(C)CCN(C(=O)c2ccc(F)c(C)c2)C1 (stereo unspecified),inactive: -3.67%,
CCCC(C(=O)OCCN(CC)CC)(c1ccccc1)c1ccccc1,,"inconclusive: 21.1 µM [inhibitor, single point] and inconclusive: 25.9 µM [inhibitor, single point]"
COc1ccc(CCNC(=O)C(C(=O)c2ccccc2)n2ccccc2=O)cc1OC (stereo unspecified),,active: 5.8 µM
O=CN1CCN(C(=O)c2cc3cc(Cl)ccc3[nH]2)CC1,,"inconclusive: 23.1 µM [inhibitor, single point]"
O=C(/C=C/c1cccc(Br)c1)c1ccc2c(c1)OCO2,,"inconclusive: 25.9 µM [inhibitor, single point]"
Cc1ccc(NC(=O)C(c2ccccc2)N2Cc3ccccc3C2=O)cc1Cl (stereo unspecified),inactive: -14.4%,
CCOc1ccc(S(=O)(=O)NCc2ccccc2Cl)cc1C(N)=O,,"inactive and inconclusive: 22.4 µM [inhibitor, single point]"
CC(NC(=O)c1cc(COc2ccc(-n3cncn3)cc2)on1)c1ccc(F)cc1 (stereo unspecified),,"inconclusive: 29.1 µM [inhibitor, partial curve, poor fit]"
CCc1ccc(NC(=O)CSc2nc3ccccc3c(=O)n2CCN2CCOCC2)cc1,,"inconclusive: 10.3 µM [inhibitor, partial curve]"
CCCn1nnc(NC(=O)C(C)C)n1,inactive: -3%,
COc1ccccc1NS(=O)(=O)c1cc(C(=O)NCC(C)(C)N2CCOCC2)ccc1C,inactive: -26.2%,
Cc1cc(C(=O)NCC(=O)Nc2ccc(F)c(F)c2)c(C)o1,inactive: 2.46%,
Cc1ccc(/C=C2/SC(=S)N(CCCC(=O)Nc3ccc(O)cc3)C2=O)cc1,,active: 23.1 µM
CCOc1ccc(NS(=O)(=O)c2cc(OC)ccc2OC)cc1,,"inconclusive: 13 µM [inhibitor, partial curve, poor fit]"
Cc1cccc(NC(=O)c2oc3ccccc3c2NC(=O)c2cc(=O)c3cc(Cl)ccc3o2)c1,,"inconclusive: 3.26 µM [inhibitor, single point]"
O=C(NC(=S)NCCOCc1ccc(Cl)cc1)c1cccnc1,inactive: -12.4%,
Cc1nnc(SCC(=O)c2ccc(Br)cc2)s1,,"inconclusive: 1.46 µM [inhibitor, partial curve]"
Cc1ccc(OCc2nnc(SCC(=O)N3C(C)CCCC3C)o2)cc1 (stereo unspecified),,"inconclusive: 18.4 µM [inhibitor, partial curve]"
Cc1cc(C)n2nc(SCC(=O)NC(=O)NCc3ccco3)nc2n1,,"inconclusive: 11.6 µM [inhibitor, partial curve]"
Cc1cccc(/C=C/c2onc(C)c2[N+](=O)[O-])n1,,active: 2.59 µM
CCn1cc(CNC(=O)c2ccc(Cl)c([N+](=O)[O-])c2)c(C)n1,,"inconclusive: 23.1 µM [inhibitor, single point]"
COc1ccccc1C(=O)Nc1c(C(=O)N(C)c2ccccc2)sc2nc(C)cc(C)c12,,"inconclusive: 18.4 µM [inhibitor, single point]"
COC(=O)N1C(=O)[C@](CC(C)C)(c2ccccc2)N1C(=O)OC,,active: 16.4 µM
COc1cc(C2C3=C(COC3=O)OC(C)(C)Oc3cc4c(cc32)OCO4)cc(OC)c1OC (stereo unspecified),,active: 0.731 µM
CCOC(=O)C(Cc1ccccc1)NC(=O)CCC(=O)c1ccc(OC)cc1 (stereo unspecified),inactive: -4.08%,

SMILES,"activity change, negative = growth inhibition",Potency
C/C(=N\NC(=O)c1ccccc1C)c1ccc(NC(=O)c2cccs2)cc1,,"inconclusive: 18.4 µM [inhibitor, partial curve, poor fit]"
COc1ccc(CCNC(=O)CCCn2c(=O)c3cccn3c3cccnc32)c(OC)c1OC,,"inconclusive: 20.6 µM [inhibitor, partial curve]"
CCc1nn(C(C)C(=O)NC2CCCCCC2)c(=O)c2cc3occc3n12 (stereo unspecified),inactive: -17.1%,
C=CCn1c(C)cc(C(=O)COC(=O)[C@@H](NC(=O)c2ccccc2Cl)C(C)C)c1C,,"inconclusive: 18.4 µM [inhibitor, single point]"
CCOC(=O)C1C(C(=O)Nc2cccc(C(F)(F)F)c2)C1C(=O)NC(C)C (stereo unspecified),inactive: 4.1%,
Clc1cccc(Cl)c1-c1nnc2cccc(Cl)n12,,"inconclusive: 23.1 µM [inhibitor, partial curve]"
Cc1ccc2nc(-c3ccco3)c(CC(C)(C)C)n2c1,,active: 9.2 µM
CC(=O)Nc1ccc(S(=O)(=O)Nc2ccn(Cc3ccccc3Cl)n2)cc1,inactive: -12.2%,
CCN(Cc1ccncc1)Cc1nc(CC2CC2)no1,,"inconclusive: 16.4 µM [inhibitor, partial curve, poor fit]"
CCOC(=O)c1ccc(-c2c(-c3ccccc3OC)sc3ccc(OC)cc23)cc1F,,"inconclusive: 20.6 µM [inhibitor, partial curve]"
O=C(NC(=S)Nc1cccc([N+](=O)[O-])c1)C1CCCC1,inactive: -3.62%,
CCOC(=O)NC(=S)Nc1ccc(C(C)(C)C)cc1,,"inconclusive: 29.1 µM [inhibitor, single point]"
CC(C)(C)N(Cc1ccccc1)C(=O)COC(=O)c1ccc(N2CCCC2=O)cc1,,active: 16.4 µM
COc1ccc2c(c1)[nH]c1c(N3CCSCC3)ncnc12,,active: 8.2 µM
Cc1nc(C(F)(F)F)nc(Nc2ccc(Br)cc2)c1C#N,inactive: -2.33%,
N#CCSc1ccc(-c2nc3ccccc3[nH]2)cn1,,active: 23.1 µM
Cc1ccc(-c2nc3ccc(Cl)cn3c2Cc2ccsc2)cc1,,"inconclusive: 23.1 µM [inhibitor, single point]"
O=C(Cc1cccs1)Nc1nc(-c2cccnc2)cs1,,active: 8.2 µM
OCc1ccc(O)c2ncccc12,,active: 5.17 µM
Cc1snc(SCC(=O)c2ccc(Cl)cc2)c1C#N,inconclusive: -30.7% [inhibitor],
CC(O)CC(C(=O)NNc1ccccc1)C(=O)NNc1ccccc1 (stereo unspecified),inactive: -29.3%,
COCC(=O)Nc1ccc(OC)c(Cl)c1,inactive: 3.02%,
O=C1OC(c2ccc(F)cc2)=N/C1=C\c1ccc(Br)o1,,active: 13 µM
CC(=O)NC(Cc1ccc([N+](=O)[O-])cc1)C(=O)NCC(N)C(=O)c1ccccc1 (stereo unspecified),,active: 5.62 µM
O=C(Nc1cccc2c1N(C(=O)c1ccco1)CCC2)c1ccco1,inactive: 1.69%,
COc1ccc(NS(=O)(=O)c2ccc(Cl)c(NC(=O)c3cccnc3Cl)c2)cc1,,active: 16.4 µM

SMILES,"activity change, negative = growth inhibition",Potency
COc1ccc(CNC(=O)C2CCN(C(=O)N3CC(C)Oc4ccc(C)cc43)CC2)cc1 (stereo unspecified),,"inconclusive: 20.6 µM [inhibitor, single point]"
CN(Cc1ccccc1)C(=O)C1CCN(S(=O)(=O)c2ccc3nc4c(c(C(=O)O)c3c2)CCCC4)CC1,,inactive
O=C(Cc1ccc(OCCC2CCCCC2)cc1)NO,,active: 10 µM
COC(=O)[C@]12CCCCC=C1N(CCC1=CCCCC1)C(=O)[C@H](CC(=O)NCCCN1CCCC1=O)C2,,"inconclusive: 29.1 µM [inhibitor, single point]"
Cn1c(=O)c2sccc2n2c(CCC(=O)NCc3ccccc3Cl)nnc12,inactive: -28.7%,
Cc1noc(C)c1COc1ccc(CC(=O)NCCc2ccccc2)cc1,,"inconclusive: 14.6 µM [inhibitor, single point]"
COc1ccc(S(=O)(=O)N2CCN=C2SCc2cccc(F)c2)cc1,,"inconclusive: 32.6 µM [inhibitor, single point]"
CCOC(=O)C1CC(c2ccccc2)=NN1c1ccccc1 (stereo unspecified),,"inconclusive: 25.9 µM [inhibitor, single point]"
CCOc1cc(CNC2CCCC2)cc(Cl)c1OCc1ccccc1,,"inconclusive: 23.1 µM [inhibitor, single point]"
CCc1[nH]nc2c1C(c1ccsc1)C(C#N)=C(N)O2 (stereo unspecified),,"inconclusive: 25.9 µM [inhibitor, partial curve, poor fit]"
O=C(c1cccs1)N1N=C(c2ccccc2)CC1c1ccccc1 (stereo unspecified),,"inconclusive: 29.1 µM [inhibitor, single point]"
CCN(CC)c1ccc(/C=N/N=C(N)N)c(O)c1,,active: 0.651 µM
COc1ccc(NS(=O)(=O)c2ccc(N3CCOCC3)c(NC(=O)c3ccc(OC)cc3)c2)cc1,,active: 16.4 µM
COc1cc(OC)cc(-c2nnc(SCC(=O)NCc3cccs3)o2)c1,inactive: -18.8%,
Cc1cc2ccccc2n2c(SCC(=O)N3CCc4ccccc4C3)nnc12,,"inconclusive: 23.1 µM [inhibitor, partial curve]"
ON=Cc1ccnc2ccccc12,,"inconclusive: 18.4 µM [inhibitor, single point]"
COC(=O)Cc1c(C)c2ccc(OCC(=O)N3CCCC(C)C3)c(C)c2oc1=O (stereo unspecified),,"inconclusive: 16.4 µM [inhibitor, partial curve]"
O=C(O)c1ccc(/C=N/Nc2ccc(C(F)(F)F)cn2)cc1,,"inconclusive: 25.9 µM [inhibitor, single point]"
COc1ccc(Oc2cc(C(F)(F)F)nc(N(C)C)n2)cc1,inactive: -23.5%,
O=C(CSc1cn(CCNC(=O)c2ccc3ccccc3c2)c2ccccc12)NCc1ccco1,,"inconclusive: 29.1 µM [inhibitor, single point]"
O=C(Nc1ccc2c(c1)OCO2)c1cccc(F)c1,inactive: -14.5%,
COc1ccccc1N1CCN(C[C@@H](C(=O)NC(C)(C)C)c2ccccc2)CC1,,"inconclusive: 29.9 µM [inhibitor, partial curve, poor fit]"
O=C(O)c1ccc(CNCc2ccccc2F)cc1,inactive: -19.4%,
O=C1CCCN1C(=O)CCC(=O)N1CCCC1=O,inactive: -18.1%,
